{
  "source": "patent US20210353652A1",
  "about": "“TUMOR MICROENVIRONMENT-ACTIVATED DRUG-BINDER CONJUGATES, AND USES RELATED THERETO” (Trustees of Tufts College, priority 2018, published 2021)",
  "molecules": {"B1": {"name": "AVA04-251 Fc-800 (Fc fusion)", "chain": "IPRGLSEAKPATPEIQEIVDKVKPQLEEKTGETYGKLEAVQYKTQVLAREGRQDWVLSTNYYIKVRAGDNKYMHLKVFNGPWVPFPHQQLADRVLTGYQVDKNKDDELTGFAAAGGGGSGGGGSGGGGSGGGGS[sequence of human IgG1 Fc omitted]", "modifications": "IRDye800CW conjugated with NHS chemistry to accessible amino groups (4:1 dye:protein in the reaction)", "notes": "also called dye-conjugated Affimer"}, "B2": {"name": "AVA04-251 Fc: anti-PD-L1 Affimer Fc fusion protein (SEQ ID No. 117), binds human PD-L1 (protein)", "chain": "B1 chain"}, "B3": {"name": "AVA04-182 Fc (Fc fusion)", "chain": "IPRGLSEAKPATPEIQEIVDKVKPQLEEKTGETYGKLEAVQYKTQVLAFALPEFEYMSTNYYIKVRAGDNKYMHLKVFNGPPMIRRKNEVADRVLTGYQVDKNKDDELTGFLHAAAGGGGSGGGGSGGGGSGGGGS[sequence of human IgG1 Fc omitted]", "notes": "Produced in Expi293F cells; also called AVA04-182 Fc fusion protein"}},
  "key": {"[1]": {"target": "T1, human PD-L1 Fc (Homo sapiens, UniProt Q9NZQ7)", "T1 construct": "purchased R&D Systems", "T1 sequence (Q9NZQ7 with tags, fused parts or gaps limits assumed)": "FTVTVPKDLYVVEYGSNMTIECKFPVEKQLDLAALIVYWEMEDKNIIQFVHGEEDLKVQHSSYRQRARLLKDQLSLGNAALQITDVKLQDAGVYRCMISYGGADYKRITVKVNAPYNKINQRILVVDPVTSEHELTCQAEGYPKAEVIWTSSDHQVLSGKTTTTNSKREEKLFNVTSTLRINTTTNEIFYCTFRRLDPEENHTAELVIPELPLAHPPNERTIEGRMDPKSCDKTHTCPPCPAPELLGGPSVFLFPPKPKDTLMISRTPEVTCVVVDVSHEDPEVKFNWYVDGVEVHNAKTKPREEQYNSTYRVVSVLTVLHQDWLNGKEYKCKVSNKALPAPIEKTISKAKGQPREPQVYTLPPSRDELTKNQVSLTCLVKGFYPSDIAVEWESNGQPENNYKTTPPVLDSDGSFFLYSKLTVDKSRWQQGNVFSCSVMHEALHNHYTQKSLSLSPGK", "experiment": "PD-L1 binding ELISA", "conditions": "IRDye 800CW conjugate compared with parental molecule"}, "[2]": {"target": "T2, human PD-L1 Fc (R&D Systems) chimeric protein (human, UniProt Q9NZQ7 partial chain)", "T2 construct": "Bought reagent; also called human PD-L1 Fe; not shown: Fc part of the bought R&D Systems chimera", "experiment": "binding ELISA on plate-coated human PD-L1 Fc (as in Example 10)"}, "[3]": {"tested_on": "A375 tumors expressing human PD-L1", "experiment": "Biodistribution by fluorescence imaging in A375 mouse xenograft model", "format": "in vivo"}, "[4]": {"target": "T3, PD-1/PD-L1 interaction (Homo sapiens, UniProt Q9NZQ7)", "T3 construct": "host or cells: PD-L1 aAPC/CHO-K1 cells and Jurkat T cells (NFAT-RE luciferase)", "T3 sequence (Q9NZQ7 19-290)": "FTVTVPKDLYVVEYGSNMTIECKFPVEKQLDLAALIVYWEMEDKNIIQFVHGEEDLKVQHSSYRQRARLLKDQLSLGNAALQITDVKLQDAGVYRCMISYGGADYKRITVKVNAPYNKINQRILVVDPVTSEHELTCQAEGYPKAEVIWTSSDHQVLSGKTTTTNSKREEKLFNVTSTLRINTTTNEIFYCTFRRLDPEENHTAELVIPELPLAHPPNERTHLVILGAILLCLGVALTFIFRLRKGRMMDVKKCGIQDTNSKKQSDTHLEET", "experiment": "PD-1/PD-L1 cell-based blockade assay (Promega, NFAT reporter)", "conditions": "Jurkat PD-1 NFAT-luciferase cells co-cultured with PD-L1 aAPC/CHO-K1 cells"}, "[5]": {"tested_on": "humanized PD-L1 MC38 tumour cell line", "experiment": "Humanised PD-L1 MC38 syngeneic model of colorectal cancer", "format": "in vivo, mouse", "conditions": "C57BL/6 mice, 10 mg/kg IP twice a week for 3 weeks; control SQTgly Fc"}, "[6]": {"tested_on": "J774A.1 cells", "experiment": "Pyroptosis (LDH release) in J774 mouse macrophage cell line", "format": "cell-based", "conditions": "1 μM, 24 hours"}, "[7]": {"tested_on": "T cell response (BMDC co-cultured with allogenic CD4+ T cells)", "experiment": "Mouse mixed lymphocyte reaction (MLR) assay", "format": "cell-based", "conditions": "ELISA of supernatant after 3 days of culture, in comparison to isotype control or SQTGly Fc"}, "[8]": {"tested_on": "MB49 cells", "experiment": "MB49 syngeneic murine bladder cancer model", "format": "in vivo, mouse", "conditions": "C57BL/6 mice, 21 days after initiation of treatment; Dunnett's test"}},
  "data": [
    {"molecule": "B1", "values": [
      {"measurement": "EC50 of binding to human PD-L1, conjugated versus unconjugated Affimer", "setting": "[1]", "value": "comparable EC50 values"},
      {"measurement": "EC50", "setting": "[2]", "value": 0.02, "unit": "nM"},
      {"measurement": "Tumor penetration", "setting": "[3]; 0.1 nmoles iv, tumour dissected 26 hours post-dose", "value": "Tumor penetration of the dye-conjugated Affimer was demonstrated"},
      {"measurement": "Biodistribution (tumor targeting)", "setting": "[3]; 0.5 nmoles iv, 26-hour timepoint", "value": "targeting of the anti-PD-L1 Affimer to the tumor"}
    ]},
    {"molecule": "B2", "values": [
      {"measurement": "Blockade of PD-1/PD-L1 interaction (NFAT-RE-mediated luminescence)", "setting": "[4]", "value": "blocks the PD-1/PD-L1 interaction"},
      {"measurement": "Tumour size compared to the control", "setting": "[5]", "value": "reduced tumour size"}
    ]},
    {"molecule": "B3", "values": [
      {"measurement": "LDH release in the presence of rhFAPα", "setting": "[6]; 25 nM rhFAPα", "value": "did not produce LDH release"},
      {"measurement": "LDH release in the absence of rhFAPα", "setting": "[6]; no rhFAPα", "value": "did not produce LDH release"},
      {"measurement": "IFNγ secretion", "setting": "[7]", "value": "increase"},
      {"measurement": "IL-2 secretion", "setting": "[7]; data not shown", "value": "increase"},
      {"measurement": "Tumor growth", "setting": "[8]", "value": "No significant difference"}
    ]}
  ]
}
